Hit rate of the full screen: of about 52,000 compounds, about 1,700 (3.3%) were called active. Rule as the data show it: active = survival mostly below about 52% (no sharp cut-off); inactive = mostly above about 56%. The list shows a part of the results.
These compounds were tested on Wild type (assay: S. aureus survival, RN4220 and DeltatarO strains – OD600, teichoic acid synthesis inhibitors, primary screen (AID 463173)). Details: S. aureus RN4220 wild type/DeltatarO growth, OD600, 18 h, active compounds read low, screened at 18.75 µg/mL (by protocol).

Row | SMILES | survival
1 | O=C(Oc1ccc(N(Cc2ccco2)C(=O)Cn2cnc3ccccc3c2=O)cc1)c1ccccc1F | inactive: 103%
2 | Cc1nn(-c2ccccc2)c(OC(=O)c2ccccc2F)c1S(=O)(=O)c1ccccc1 | inactive: 67%
3 | COc1cccc2sc(N(Cc3cccnc3)C(=O)COc3ccccc3)nc12 | inactive: 83%
4 | NC(=O)Cn1cc(F)c(=O)[nH]c1=O | inactive: 101%
5 | Cc1ccc(C)c(NC(=O)CSc2nc(=O)n(CCN(C)C)c3c2CCC3)c1 | inactive: 127%
6 | COc1cc(CN(C(=O)c2ccccc2[N+](=O)[O-])c2ccccn2)cc(OC)c1OC | inactive: 85%
7 | Cc1sc2c(c1C)c(=O)n(CCc1ccccc1)c(=O)n2Cc1ccccc1Cl | inactive: 96%
8 | COc1cccc(N2CCN(C(=O)c3cccc(NC(=O)c4nsc5ccccc45)c3)CC2)c1 | inactive: 71%
9 | CC1CCN(S(=O)(=O)c2ccc3c(c2)N(CC(=O)NCCCN2CCCCC2C)C(=O)CS3)CC1 (configuration not stated) | inactive: 72%
10 | N#Cc1ccccc1NC(=O)c1cc2c(=O)n3ccccc3nc2s1 | inactive: 96%
11 | CCN(CC)S(=O)(=O)c1ccc2c(c1)nc(CN(C)C(=O)c1cccc(Cl)c1)n2C | inactive: 82%
12 | COc1ccc(CCNC(=O)C2=C(C)C(=O)OC23CCCCC3)c(OC)c1OC | inactive: 79%
13 | CCn1c(=O)c2cc(C(=O)N3CCN(c4cccc(Cl)c4)CC3)sc2c2ccccc21 | inactive: 76%
14 | CCC(=O)N1CCNC(=O)C1CC(=O)OC (configuration not stated) | inactive: 117%
15 | CN(C(=O)COc1ccccc1)c1nc(-c2ccccc2)cs1 | inactive: 111%
16 | COc1cc(Cl)c(C)cc1NC(=O)c1cc(CN2CCOCC2)on1 | inactive: 65%
17 | COc1ccc(OC)c(CNC(=O)C2CCN(S(=O)(=O)c3cn(C)cn3)CC2)c1 | inactive: 82%
18 | Cc1ccc(S(=O)(=O)c2cn(Cc3ccccc3F)c3cc4c(cc3c2=O)OCO4)cc1 | inactive: 121%
19 | CC1CCCN(Cc2c(O)ccc3c(=O)c(Oc4ccccc4Cl)c(C(F)(F)F)oc23)C1 (configuration not stated) | inactive: 71%
20 | CCN=C1SC(C(=O)Nc2ccc(Br)cc2)CC(=O)N1CC (configuration not stated) | inactive: 114%
21 | CCc1ccccc1NC(=O)Nc1cc(C(=O)NCc2ccc(C(C)C)cc2)ccc1N1CCCC1 | inactive: 131%
22 | Cc1cc(NC(=O)c2ccc3c(c2)N(Cc2cccc(Cl)c2)C(=O)c2ccccc2S3=O)ccc1Br (configuration not stated) | inactive: 72%

Row | SMILES | survival
23 | O=C(O)CN1C(=O)c2ccc(Br)cc2C1=O | inactive: 113%
24 | CCC1CN(S(=O)(=O)c2cc(-c3cc(C)no3)ccc2OC)c2cc(C)ccc2O1 (configuration not stated) | inactive: 120%
25 | Cc1cc(=O)n2c(C(=O)Nc3ccc(C)c(Cl)c3)c(C(=O)Nc3ccccc3)sc2n1 | inactive: 81%
26 | Cc1cc(C)c(S(=O)(=O)Nc2cc(-c3cn4ccccc4n3)ccc2C)cc1C | inactive: 66%
27 | O=C(CCC(=O)c1ccccc1)Nc1cccnc1 | inactive: 96%
28 | CCN1CCN(C(=O)c2ccc3c(c2)N(Cc2ccc(Cl)cc2)C(=O)c2ccccc2S3(=O)=O)CC1 | inactive: 92%
29 | COc1ccc(C(=O)N(Cc2sccc2C)C2CCS(=O)(=O)C2)cc1Cl (configuration not stated) | inactive: 113%
30 | Cc1ccc(C(=O)c2sc(Nc3ccccc3F)c(S(=O)(=O)c3ccccc3)c2N)c(C)c1 | inactive: 91%
31 | O=C(NCc1ccc2c(c1)OCO2)c1ccc2c(c1)N(Cc1cccc(Cl)c1)C(=O)c1ccccc1S2 | inactive: 66%
32 | Cc1cccc(N2CCN(C(=O)C3CCN(S(=O)(=O)c4c(C)noc4/C=C/c4ccccc4F)CC3)CC2)c1C | inactive: 58%
33 | CC1(C)Cc2ccccc2/C(=C/C(=O)N2CCOCC2)N1 | inactive: 110%
34 | O=C(Cn1ncc2c([nH]c3ccccc32)c1=O)Nc1cc(F)ccc1F | inactive: 71%
35 | CC(=O)c1ccc(NC2=NS(=O)(=O)c3ccccc32)cc1 | inactive: 91%
36 | COc1c(Cl)cc(C(=O)Nc2cccc(-c3nc4ccccc4[nH]3)c2)cc1Cl | inactive: 33%
37 | O=C(Nc1nnc(S(=O)(=O)N2CCCCCC2)s1)c1ccc(Br)cc1 | inactive: 68%
38 | O=C(CSc1nnc(-c2ccccc2)o1)Nc1ccccc1 | inactive: 100%
39 | CCOC(=O)c1c(Nc2cccc(O)c2)nnc(-c2ccccc2)c1-c1ccccc1 | inactive: 44%
40 | Cc1cc(C)c(Cn2c3ccccc3c3cnn(CC(=O)NCCc4ccccc4)c(=O)c32)c(C)c1 | inactive: 166%
41 | CCc1cccc(C)c1NS(=O)(=O)c1c(C(=O)N2CCCCCC2)c(C)n(C)c1C | inactive: 75%
42 | Cc1ccc(Cl)cc1N1CCN(C(=O)CN2C(=O)COc3ccc(S(=O)(=O)N4CCOCC4)cc32)CC1 | inactive: 75%
43 | COc1ccc(Cl)cc1NC(=O)Cn1nnc2sc3c(c2c1=O)CCC(C(C)(C)C)C3 (configuration not stated) | inactive: 82%
44 | O=C(NCc1ccc(F)cc1)c1ccc(CSc2nc3ccncc3n2Cc2ccc(F)cc2)cc1 | inactive: 85%

Row | SMILES | survival
45 | Cc1ccc(C)n1-c1cccc2cccnc12 | inactive: 103%
46 | CCOc1ccccc1C1CC(=O)NC(C)=C1C(=O)OC1CCCCCC1 (configuration not stated) | inactive: 85%
47 | COCCNC(=O)Cn1c(=O)n(Cc2ccc(C(=O)NCCc3ccc(OC)c(OC)c3)cc2)c(=O)c2ccccc21 | inactive: 124%
48 | O=C(CSc1nc2ccccc2nc1Cc1ccc(F)cc1)Nc1ccc2c(c1)OCO2 | inactive: 64%
49 | COc1cc(Cl)c(C)cc1NC(=O)CCCN1C(=O)C(c2ccccc2)Oc2cccnc21 (configuration not stated) | inactive: 92%
50 | Cc1cccc(Oc2nc3ccccn3c(=O)c2/C=C(\C#N)c2nc3ccccc3s2)c1C | inactive: 67%
51 | COc1ccc(NC(=O)C2CCCN(S(=O)(=O)c3cn(C)cn3)C2)cc1Cl (configuration not stated) | inactive: 45%
52 | Cc1ccc(NC(=O)Cn2cc(S(=O)(=O)c3ccc(F)cc3)c(=O)c3cc4c(cc32)OCO4)cc1 | inactive: 71%
53 | Cc1ccc(NC(=O)CSc2nccn2C2CCCC2)cc1 | inactive: 67%
54 | COc1ccc(CCNC(=O)c2ccc3c(c2)CCN3S(=O)(=O)c2ccc(Cl)cc2)cc1 | inactive: 88%
55 | COc1ccc(OC)c(NC(=O)c2ccc(-c3nc(CSc4ccccc4)c(C)o3)cc2)c1 | inactive: 63%
56 | CC(C)(C)C(=O)Cn1c(=O)n(CCCCCC(=O)NCc2ccc3c(c2)OCO3)c(=O)c2sccc21 | inactive: 85%
57 | Cc1ccc(C(=O)CSc2nc3cc(C(=O)NC4CCCC4)ccc3c(=O)n2CC2CCCO2)cc1 (configuration not stated) | inactive: 75%
58 | CCCCn1cc(S(=O)(=O)c2ccc(CC)cc2)c(=O)c2cc(F)c(N3CCCC(C)C3)cc21 (configuration not stated) | inactive: 115%
59 | COc1ccccc1CCNC(=O)c1ccc(NC(=O)N2CC(C)Sc3ccccc32)cc1 (configuration not stated) | inactive: 85%
60 | CSc1cccc(NS(=O)(=O)c2ccc3[nH]cc(C(=O)N4CCCC4)c(=O)c3c2)c1 | inactive: 85%
61 | Cn1c(=O)n(C)c2cc(N3CCCCC3)c(NC(=O)c3ccc(Cl)cc3)cc21 | inactive: 85%
62 | COc1cc(OC)c(NC(=O)c2c(C)nn(-c3ccc(C)cc3)c2-n2cccc2)cc1Cl | inactive: 73%
63 | COc1ccc(C(=O)NCCn2cc(SCC(=O)Nc3ccccc3)c3ccccc32)cc1OC | inactive: 65%
64 | CCOC(=O)Cn1nnnc1CN(Cc1cc2c(C)ccc(C)c2[nH]c1=O)C1CCCCC1 | inactive: 104%
65 | O=C(Nc1ccccc1O)c1ccccn1 | inactive: 114%
66 | Cc1cc(C)cc(NC(=O)C2CCCN2S(=O)(=O)c2ccc3c(c2)C(C)(C)C(=O)N3C)c1 (configuration not stated) | inactive: 83%

Row | SMILES | survival
67 | CCOC(=O)c1ccc(NC(=O)c2ccc3c(c2)c(C)c(C)n3Cc2ccc(F)cc2)cc1 | inactive: 90%
68 | O=C(CN1CCN(c2nc3ccccc3s2)CC1)Nc1ccc2c(c1)OCO2 | inactive: 101%
69 | CCOC(=O)C1(C)C=C(Nc2ccc(OC)cc2)C(=O)N1c1ccccc1 (configuration not stated) | inactive: 67%
70 | COc1ccccc1NC(=O)c1oc2ccccc2c1NC(=O)c1c(F)cccc1F | inactive: 60%
71 | COc1ccc(Cn2cc(C(=O)c3ccc(Cl)cc3)c(=O)c3cc4c(cc32)OCO4)cc1 | inactive: 71%
72 | CCN(CC)c1ccc(/C=C2/SC(=O)NC2=O)cc1 | inactive: 114%
73 | Cc1cc(C)c(Cn2c3ccccc3c3cnn(CC(=O)NC4CCCCCC4)c(=O)c32)c(C)c1 | inactive: 127%
74 | Cc1ccc(-c2nnn(CC(=O)NC(C)C)n2)cc1 | inactive: 105%
75 | Cc1ccc(-n2nc3c(N4CCC(C(=O)N5CCC(C)CC5)CC4)nnc(C)c3c2C)cc1 | inactive: 136%
76 | O=C(Nc1cccc(Cl)c1Cl)c1cc(S(=O)(=O)N2CCC3(CC2)OCCO3)ccc1F | inactive: 75%
77 | COc1cc(OC)cc(C(=O)Nc2ccc(S(=O)(=O)N3CCCCC3c3cccnc3)cc2)c1 (configuration not stated) | inactive: 71%
78 | COC(=O)c1cc2oc3ccccc3c2n1Cc1nc(-c2cccc(Cl)c2)oc1C | inactive: 133%
79 | CCc1ccc(Nc2nn3c(=O)c4cc5c(cc4nc3s2)OCO5)cc1 | inactive: 78%
80 | Cc1c(C(=O)NC2CCCCC2)oc2ccccc12 | inactive: 130%
81 | COCCn1nnnc1C(c1ccc(OC)c(OC)c1)N1CCc2ccccc21 (configuration not stated) | inactive: 121%
82 | O=C(NCCN1CCN(c2ccccc2F)CC1)C1COc2ccccc2C1 (configuration not stated) | inactive: 73%
83 | C=CCNC(=O)c1cc(-c2ccccc2)on1 | inactive: 116%
84 | NC(=O)CN1CCC(N2CCCCC2)CC1 | inactive: 90%
85 | CC(C)Cn1c(=O)c2sccc2n2c(CCCC(=O)NCC(C)c3ccccc3)nnc12 (configuration not stated) | inactive: 96%
86 | COc1ccc(CNC(=O)c2ccc3c(c2)N(Cc2ccccc2F)C(=O)c2ccccc2S3=O)cc1 (configuration not stated) | inactive: 86%
87 | CC(=O)Nc1nonc1-c1nnc(SCc2ccccc2C)n1C | inactive: 78%
